The source of these data is a collection of fitness landscapes (doi:10.1038/s41467-024-54723-y).

The full ranking holds about 18,000 sequences; the median of “TetR repression strength (sort-seq, GFP reporter)” is about 0.23, and the highest 2% start at about 0.68. This is one part of the list.

Sequence of UniProt P04483 (P04483 whole entry): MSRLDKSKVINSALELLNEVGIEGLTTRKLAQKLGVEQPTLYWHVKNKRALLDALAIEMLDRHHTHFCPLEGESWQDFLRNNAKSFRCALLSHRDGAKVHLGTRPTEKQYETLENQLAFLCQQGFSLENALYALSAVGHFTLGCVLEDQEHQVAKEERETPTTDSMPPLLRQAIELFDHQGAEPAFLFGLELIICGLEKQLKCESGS

The target in the test is TetR (class B, Tn10) (UniProt P04483). Description: TetR repression strength (sort-seq, GFP reporter) (relative to tetO2 = 1); higher = stronger repression. To be noted: E. coli. An outline of the steps:
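In LB with 50 µg/mL chloramphenicol, E. coli SIG10-MAX holding a low-copy library with eight randomized operator positions between a constitutive promoter and sfGFP, plus constitutive TetR, grew for 5 h at 37 °C. FACS then sorted 10^6 cells into 13 fluorescence bins for Illumina sequencing of each bin. Repression strength equals the top bin index plus one less the read-weighted mean bin, normalized to the unaltered operator. Values from three independent transformations were averaged when reads were ≥30 in every replicate and the CV was ≤0.5.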
TCCCTGGTAGTATGAGAGA showed a TetR repression strength of 0.219.

Consider TCCCGTTAAGTCGGTGAGA, for which the TetR repression strength came out at 0.348.

TCCCTCTCAGTCGTGGAGA showed a TetR repression strength of 0.157.

Consider TCCCCATGAGTAGAGGAGA, for which the TetR repression strength was 0.178.

On to TCCCCAGCAGTGGGGGAGA, for which the TetR repression strength worked out at 0.174.

As to TCCCAAAGAGTGGTCGAGA, the TetR repression strength came out at 0.0159.

Take TCCCCGTGAGTCCTAGAGA: the TetR repression strength amounted to 0.559.

With TCCCGGAGAGTTCAAGAGA, the TetR repression strength was determined as 0.362.

In turn, TCCCTGTTAGTTGGTGAGA yielded a TetR repression strength of 0.0207.

Consider TCCCGTTGAGTGCATGAGA, for which the TetR repression strength amounted to 0.105.

TCCCGGCGAGTGGTAGAGA: the TetR repression strength was 0.306.

TCCCCTACAGTGAATGAGA: the TetR repression strength was determined as 0.311.

TCCCATGGAGTTGTTGAGA yielded a TetR repression strength of 0.324.

Regarding TCCCGGCCAGTTTGGGAGA, the TetR repression strength was 0.281.

Consider TCCCAACCAGTTGTGGAGA, for which the TetR repression strength worked out at 0.257.

As to TCCCCATCAGTGTCTGAGA, the TetR repression strength was found to be 0.579.

In turn, TCCCGACGAGTGTGTGAGA returned a TetR repression strength of 0.173.

TCCCATGTAGTGCGTGAGA: the TetR repression strength amounted to 0.231.

For the sequence TCCCCGGAAGTAGGGGAGA, the TetR repression strength stood at 0.243.

TCCCTTTGAGTCAACGAGA: the TetR repression strength stood at 0.0848.

TCCCTCGGAGTCGCTGAGA yielded a TetR repression strength of 0.323.

TCCCATGGAGTAGATGAGA showed a TetR repression strength of 0.0211.

TCCCGCCCAGTTGTCGAGA: the TetR repression strength is 0.0341.

Sequence TCCCGCAGAGTAACTGAGA showed a TetR repression strength of 0.197.

TCCCTGTCAGTATGTGAGA registered a TetR repression strength of 0.225.

Sequence TCCCTCTTAGTAGGTGAGA displayed a TetR repression strength of 0.344.

Sequence TCCCTGACAGTGTACGAGA gave a TetR repression strength of 0.0921.

TCCCGAGCAGTGAAAGAGA registered a TetR repression strength of 0.755.

Turning to TCCCTGTTAGTTGGCGAGA, the TetR repression strength worked out at 0.0205.

In turn, TCCCTCCCAGTAGGGGAGA registered a TetR repression strength of 0.174.

Turning to TCCCTAAAAGTATCTGAGA, the TetR repression strength was found to be 0.22.

The sequence TCCCATCGAGTTCAAGAGA had a TetR repression strength of 0.439.

The sequence TCCCAGCAAGTTGTCGAGA yielded a TetR repression strength of 0.286.

In the case of TCCCCGTGAGTGGGAGAGA, the TetR repression strength was 0.0366.

As to TCCCGTGCAGTAAAAGAGA, the TetR repression strength was determined as 0.332.

As to TCCCCATGAGTTTAAGAGA, the TetR repression strength amounted to 0.113.

Turning to TCCCATCGAGTTTATGAGA, the TetR repression strength worked out at 0.0488.

With TCCCTGTGAGTAGGTGAGA, the TetR repression strength came out at 0.163.

In turn, TCCCTCACAGTGGTGGAGA returned a TetR repression strength of 0.278.

As to TCCCAAGGAGTCAGCGAGA, the TetR repression strength came to 0.104.

Sequence TCCCTGCCAGTCCCAGAGA had a TetR repression strength of 0.313.

With TCCCAGGGAGTGCTGGAGA, the TetR repression strength came out at 0.333.

The sequence TCCCCCGGAGTATTTGAGA had a TetR repression strength of 0.277.

In the case of TCCCGGAGAGTGAGCGAGA, the TetR repression strength was 0.161.

TCCCGGGAAGTTCAGGAGA came in with a TetR repression strength of 0.2.

Sequence TCCCACTGAGTTGACGAGA registered a TetR repression strength of 0.211.

TCCCCGGCAGTGATGGAGA returned a TetR repression strength of 0.177.

Sequence TCCCCCCGAGTGTACGAGA showed a TetR repression strength of 0.257.

As for TCCCGATAAGTGCGCGAGA, the TetR repression strength stood at 0.158.

TCCCTGATAGTCATTGAGA gave a TetR repression strength of 0.278.

TCCCGGTGAGTAAGAGAGA registered a TetR repression strength of 0.32.

TCCCTTTCAGTATGGGAGA showed a TetR repression strength of 0.422.

Sequence TCCCCTAGAGTGAAAGAGA yielded a TetR repression strength of 0.479.

Sequence TCCCCTTAAGTCGTGGAGA returned a TetR repression strength of 0.061.

In turn, TCCCATCGAGTCGGTGAGA registered a TetR repression strength of 0.179.

The sequence TCCCAGGTAGTGTGTGAGA showed a TetR repression strength of 0.146.

Consider TCCCAGTAAGTAGGTGAGA, for which the TetR repression strength was 0.246.

TCCCGTTAAGTGGCTGAGA registered a TetR repression strength of 0.187.

In the case of TCCCGGTAAGTACGCGAGA, the TetR repression strength was 0.0772.

TCCCTAGAAGTTCAGGAGA showed a TetR repression strength of 0.252.

The sequence TCCCAGTCAGTCTGTGAGA showed a TetR repression strength of 0.221.

In the case of TCCCATTCAGTTGGGGAGA, the TetR repression strength amounted to 0.43.

Turning to TCCCGTTCAGTCTCAGAGA, the TetR repression strength came to 0.307.

TCCCAAAGAGTCGGGGAGA registered a TetR repression strength of 0.0626.

For the sequence TCCCTGCGAGTGGCGGAGA, the TetR repression strength was determined as 0.241.

Turning to TCCCTTTGAGTCGCGGAGA, the TetR repression strength came out at 0.415.

Take TCCCGTTGAGTGCTAGAGA: the TetR repression strength stood at 0.219.

In turn, TCCCGAGTAGTGTAGGAGA had a TetR repression strength of 0.201.

Consider TCCCCGAGAGTGTTGGAGA, for which the TetR repression strength came to 0.156.

As for TCCCTGCCAGTTATGGAGA, the TetR repression strength turned out to be 0.465.

TCCCAAGCAGTGCAGGAGA displayed a TetR repression strength of 0.242.

In the case of TCCCCGGAAGTGGCAGAGA, the TetR repression strength is 0.185.

Regarding TCCCACGAAGTTAAGGAGA, the TetR repression strength was 0.448.

Consider TCCCCATGAGTTACTGAGA, for which the TetR repression strength is 0.212.

In turn, TCCCAACAAGTGAATGAGA came in with a TetR repression strength of 0.336.

In turn, TCCCTCGCAGTTGATGAGA registered a TetR repression strength of 0.385.

Sequence TCCCAGTGAGTTGAGGAGA came in with a TetR repression strength of 0.179.

The sequence TCCCATGAAGTTGCCGAGA came in with a TetR repression strength of 0.233.

TCCCGAGAAGTGCCGGAGA returned a TetR repression strength of 0.205.

For the sequence TCCCCGGGAGTCGGTGAGA, the TetR repression strength is 0.171.

TCCCGGGCAGTGGGGGAGA showed a TetR repression strength of 0.347.

In the case of TCCCCTTAAGTGGAGGAGA, the TetR repression strength amounted to 0.593.

On to TCCCTCTGAGTGTAAGAGA, for which the TetR repression strength turned out to be 0.23.

For TCCCCTGTAGTCTTTGAGA, the TetR repression strength is 0.256.

TCCCTATGAGTGGGCGAGA yielded a TetR repression strength of 0.164.

Sequence TCCCATTGAGTCGCAGAGA yielded a TetR repression strength of 0.151.

TCCCCGAGAGTGTGCGAGA came in with a TetR repression strength of 0.473.

As for TCCCGCTGAGTAGGGGAGA, the TetR repression strength worked out at 0.269.

In the case of TCCCATCCAGTGGTGGAGA, the TetR repression strength was 0.0246.

Turning to TCCCAGCAAGTCGAGGAGA, the TetR repression strength stood at 0.446.

TCCCACTCAGTTAGAGAGA registered a TetR repression strength of 0.677.

Take TCCCTTGCAGTCCTCGAGA: the TetR repression strength was found to be 0.543.

TCCCGATCAGTCATGGAGA: the TetR repression strength amounted to 0.268.

TCCCGGCGAGTGATAGAGA returned a TetR repression strength of 0.484.

Turning to TCCCTTGCAGTCCGTGAGA, the TetR repression strength came to 0.301.

Regarding TCCCAGAAAGTAGGCGAGA, the TetR repression strength came out at 0.0682.

For the sequence TCCCCCTAAGTGAGGGAGA, the TetR repression strength worked out at 0.167.

TCCCTAAGAGTGATGGAGA returned a TetR repression strength of 0.243.

Consider TCCCAGTCAGTGCATGAGA, for which the TetR repression strength was determined as 0.177.

TCCCTTCAAGTGCCTGAGA: the TetR repression strength was found to be 0.503.

As to TCCCGCACAGTAGTTGAGA, the TetR repression strength came to 0.043.

For TCCCTGATAGTACGGGAGA, the TetR repression strength was determined as 0.107.
